According to PubChem BioAssay AID2675 (National Center for Advancing Translational Sciences (NCATS), 2010):
Out of some 280,000 compounds screened, about 100 (0.036%) were called active. The inconclusive results got no clear call from the source; some entries with a clear call stand among them for comparison. The call rests on the fitted dose curve; in most records, active means well fitted inhibition curve with a large enough effect in the signal ratio, with a control signal flat (not every such curve was filed as active); inconclusive means small, poorly fitted or top-dose-only effect, or effect the other way, or a change in a side signal; inactive means no such curve, though single readings can be large or run the other way; the % refers to the signal ratio. A potency beside an inconclusive call is a rough fit, not a confirmed value. A note “side channel” means that the fit belongs to a control or component signal, not to the main read-out.

Target: Muscleblind-like protein 1 (Homo sapiens) (UniProt Q9NR56)
Assay: qHTS Assay for Inhibitors of MBNL1-poly(CUG) RNA binding
Details: TR-FRET MBNL1-His/biotin-(CUG)12 binding, 665/545 ratio; activity change, negative = inhibition: at 57.5 µM (top of the series)
Method in brief: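 MBNL1-His + Biotin-(CUG)12, cpd titration 92 nM–58 uM; Tb anti-His Ab 0.055 ng/ul, SA-XL665 5 nM (final); 60 min RT; ratiometric 665/545 nm, Ex 340 nm; normalized to buffer and full-complex controls.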
On the % scale 0 is the no-effect control and ±100 the full control effect; potency means the concentration at half of the fitted maximal effect; tags describe the fitted curve by direction and shape or compound fluorescence and quenching.

Sequence of UniProt Q9NR56 (Q9NR56 whole entry, looked up): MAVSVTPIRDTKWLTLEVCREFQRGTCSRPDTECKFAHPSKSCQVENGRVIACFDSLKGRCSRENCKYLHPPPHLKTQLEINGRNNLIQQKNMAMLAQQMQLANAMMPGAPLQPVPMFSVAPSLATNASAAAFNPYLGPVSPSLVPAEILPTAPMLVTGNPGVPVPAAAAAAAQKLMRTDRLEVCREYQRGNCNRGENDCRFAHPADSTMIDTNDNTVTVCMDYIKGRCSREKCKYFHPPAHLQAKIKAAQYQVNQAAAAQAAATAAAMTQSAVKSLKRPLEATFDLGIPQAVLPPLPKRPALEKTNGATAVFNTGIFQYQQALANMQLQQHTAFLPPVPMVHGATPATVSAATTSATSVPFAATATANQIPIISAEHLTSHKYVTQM

Row | Structure (SMILES) | Potency | activity change, negative = inhibition
1 | COc1cccc(/C=N/NC(=O)c2[nH]c(C)c(C(=O)N/N=C/c3cccc(OC)c3)c2C)c1 | inactive | 
2 | CCOc1ccccc1N1C(=O)c2ccc(C(=O)Nc3cccnc3)cc2C1=O | inconclusive: 20 µM [quencher, side channel, partial curve] | 
3 | Cc1nc(NC(=S)NC(=O)c2ccco2)sc1C(=O)N(C)C | inactive | 
4 | CCN(CC)S(=O)(=O)c1ccc(Cl)c(C(=O)Nc2ccc(Cl)cc2[N+](=O)[O-])c1 | inconclusive: 17.8 µM [quencher, side channel, partial curve] | 
5 | O=C(CSCc1ccc(F)cc1)Nc1ccccc1C(=O)N1CCOCC1 | inconclusive: 3.55 µM [fluorescent, side channel, partial curve] | 
6 | CCC(=O)N1CCN(c2ccc(NC(=O)c3cc4ccccc4o3)cc2Cl)CC1 | inactive | 
7 | COC(=O)C1=C(C)N(CCCC(=O)O)C(=O)NC1c1cc2c(cc1[N+](=O)[O-])OCO2 (centres undefined) | inconclusive: 12.6 µM [inhibitor, single point] | 
8 | Cc1ccc(C(=O)CSc2cc(C)[nH]c(=O)n2)cc1 | inconclusive: 15.8 µM [quencher, side channel, partial curve] | 
9 | CC(C)(C)c1cnnn1-c1ccc([N+](=O)[O-])cc1 | inconclusive: 12.6 µM [quencher, side channel, partial curve] | 
10 | COC(=O)c1c(C(=O)OC)c2ccccn2c1C(=O)c1ccccc1 | inactive | 
11 | COc1cc(C(=S)N2CCOCC2)cc(OC)c1OC(=O)c1cc([N+](=O)[O-])cc([N+](=O)[O-])c1 | inconclusive: 12.6 µM [quencher, side channel, partial curve] | 
12 | COc1ccc(/C(O)=C2/C(=O)C(=O)N(CCN3CCOCC3)C2c2ccccn2)cc1OC (centres undefined) | inconclusive: 17.8 µM [quencher, side channel, partial curve] | 
13 | COC(=O)c1ccc(N)c(N=CC2=C(O)CC(C)(C)CC2=O)c1 | inconclusive: 28.2 µM [quencher, side channel, single point] | 
14 | COc1ccccc1CNC(=O)CCC(=O)N1Cc2cccc(OC)c2Oc2ncccc21 | inactive | 
15 | COc1ccc(/C=C2/C(=O)N=C(N)N2C)cc1OC | inconclusive: 14.1 µM [quencher, side channel, partial curve] | 
16 | O=[N+]([O-])c1cccnc1N/N=C/c1ccccc1O | inactive | 
17 | Cc1ccc(NC(=O)/C(C#N)=N/Nc2ccc(C(=O)O)cc2)c(C)c1 | inconclusive: 28.2 µM [quencher, side channel, partial curve] | 
18 | Cc1ccccc1NC(=O)c1ccc([N+](=O)[O-])o1 | inconclusive: 10 µM [quencher, side channel, partial curve] | 
19 | COCCNC(=O)C1CCN(C(=O)c2cc3sccc3n2Cc2ccc(F)cc2)CC1 | inactive | 
20 | Cc1cc[n+](C2=C([O-])c3ccccc3C(=O)/C2=N\S(=O)(=O)c2cccs2)cc1C | inconclusive: 14.1 µM [quencher, side channel, partial curve] | 

Row | Structure (SMILES) | Potency | activity change, negative = inhibition
21 | CN(C)c1ccc(NC2=C(Cl)C(=O)c3ccccc3C2=O)cc1 | inconclusive: 1.78 µM [quencher, side channel, partial curve] | 
22 | O=[N+]([O-])c1cc(-c2ncccn2)cs1 | inconclusive: 10 µM [quencher, side channel, partial curve] | 
23 | O=C(Nc1ccccc1-c1nc2ccccc2[nH]c1=O)c1cccs1 | inconclusive: 14.1 µM [quencher, side channel, partial curve] | 
24 | O=C(CCC(=O)Nc1ccccc1Cl)NNC(=O)c1ccccc1[N+](=O)[O-] | inconclusive: 15.8 µM [quencher, side channel, partial curve] | 
25 | O=C(c1cccc(Oc2c(Cl)cccc2[N+](=O)[O-])c1)N1CCCCC1 | inconclusive: 14.1 µM [quencher, side channel, partial curve] | 
26 | COC(=O)c1ccc2nc(NC(=O)C(C)(C)C)sc2c1 | inactive | 
27 | N=c1c2c(ncn1CCCO)Oc1c(ccc3ccccc13)C2c1ccccc1 (centres undefined) | inactive | 
28 | OCC[C@@H]1C[C@H](O)[C@@H](O)[C@@]2(Cc3ccccc3CCO2)O1 | inactive | 
29 | CC(=O)c1cccc(NS(=O)(=O)c2ccc(N/C=C\C(=O)c3ccc(F)cc3)cc2)c1 | inconclusive: 25.1 µM [quencher, side channel, partial curve] | 
30 | COc1ccc(CCNC(=O)COc2ccc(C)nc2[N+](=O)[O-])cc1OC | inconclusive: 25.1 µM [quencher, partial curve] | 
31 | O=C1OC(Nc2cc(Br)cc3cccnc23)c2ccccc21 (centres undefined) | inconclusive: 39.8 µM [quencher, side channel, single point] | 
32 | COC(CNS(=O)(=O)c1cccc2nonc12)OC | inconclusive: 14.1 µM [quencher, side channel, partial curve] | 
33 | Cc1ccc(-c2nnc(-c3ccccc3)o2)cc1 | inconclusive: 1.78 µM [fluorescent, side channel, full curve, poor fit] | 
34 | [O-][n+]1c(/C=C/c2ccccc2)ccc2ccccc21 | inconclusive: 15.8 µM [quencher, side channel, single point] | 
35 | O=C(COC(=O)c1cc(=O)[nH]c2ccccc12)Nc1cccc(S(=O)(=O)N2CCOCC2)c1 | inconclusive: 25.1 µM [quencher, side channel, partial curve] | 
36 | CC(=O)c1ccc(NC(=O)COC(=O)c2ccccc2N=Nc2ccc(N(C)C)cc2)cc1 | inconclusive: 12.6 µM [activator, single point] | 
37 | Cc1c(NN=C(C#N)C#N)c(=O)n(-c2ccccc2)n1C | inconclusive: 15.8 µM [quencher, side channel, partial curve] | 
38 | COc1ccccc1NS(=O)(=O)c1ccc(NN=C2CCCC2)c([N+](=O)[O-])c1 | inconclusive: 1.12 µM [quencher, side channel, full curve, poor fit] | 
39 | Cc1ccc(S(=O)(=O)NCCNc2ccc([N+](=O)[O-])cc2)cc1 | inconclusive: 15.8 µM [quencher, side channel, partial curve] | 
40 | CCC1(CC)Cc2ccccc2-c2nc(CN(C)C)[nH]c(=O)c21 | inactive | 

Row | Structure (SMILES) | Potency | activity change, negative = inhibition
41 | CCN(CC)CCCN=Cc1c(O)n(Cc2ccccc2)c(=O)c2ccccc12 | inconclusive: 25.1 µM [quencher, side channel, single point] | 
42 | O=C1Nc2ccc([N+](=O)[O-])cc2C1(O)N1CCCCC1 (centres undefined) | inconclusive: 11.2 µM [quencher, side channel, partial curve] | 
43 | COc1cccc(N=Nc2c(=O)[nH]n3c(=O)c4c([nH]c23)CCC4)c1 | inconclusive: 17.8 µM [quencher, side channel, partial curve] | 
44 | CCOC(=O)CN1C(=O)S/C(=C/c2ccc(OCc3ccc(C(=O)O)cc3)cc2)C1=O | inconclusive: 0.141 µM [quencher, side channel, full curve, poor fit] | 
45 | CC/C(C)=N/Nc1ccc(S(=O)(=O)N2CCCC2)cc1[N+](=O)[O-] | inconclusive: 3.16 µM [quencher, side channel, partial curve, poor fit] | 
46 | CCCn1nc(NS(=O)(=O)c2cccc3nonc23)c2cc3cc(C)ccc3nc21 | inconclusive: 4.47 µM [quencher, side channel, single point] | 
47 | CC(C)(C)OC(=O)N/N=C/c1ccc(N2CCOCC2)s1 | inconclusive: 17.8 µM [quencher, side channel, partial curve] | 
48 | Cc1ccc(N2C(=N)/C(=C3/Nc4ccccc4S3)C(c3ccccc3)C2=O)cc1 (centres undefined) | inconclusive: 63.1 µM [inhibitor, single point] | 
49 | CN(C)C(/C=C/Nc1ccc(F)cc1F)=C(C#N)C#N | inconclusive: 8.91 µM [quencher, side channel, single point] | 
50 | Clc1ccc(-c2cn3cc(Br)ccc3n2)cc1Cl | inconclusive: 0.112 µM [fluorescent, side channel, full curve] | 
51 | CCS(=O)(=O)CCn1c([N+](=O)[O-])cnc1C | inconclusive: 17.8 µM [quencher, side channel, partial curve] | 
52 | COc1ccccc1CN=C1Nc2ccccc2CS1 | inconclusive: 79.4 µM [inhibitor, partial curve] | 
53 | CCOc1ccc(C(=O)Nc2ccccc2N2CCN(C(=O)c3ccccc3)CC2)cc1[N+](=O)[O-] | inactive | 
54 | Cc1ccc(C)c2[nH]c(=O)c(C(c3nnnn3Cc3ccco3)N3CCc4ccccc4C3)cc12 (centres undefined) | inconclusive: 35.5 µM [quencher, side channel, single point] | 
55 | COc1cc(/C=N/NC(=O)c2cccc(NC(=O)c3ccccc3C)c2)ccc1O | inactive | 
56 | C=CCN1C(=O)/C(=C/c2ccc(-c3ccc(F)cc3)o2)SC1=S | inactive | 
57 | O=C(c1ccc2ccccc2c1)N1CCN(c2ccc([N+](=O)[O-])c(N3CCOCC3)c2)CC1 | inconclusive: 14.1 µM [quencher, side channel, partial curve] | 
58 | COc1cc(/C=C2/C(=O)NN(c3cccc(C)c3)C2=O)ccc1OC(=O)c1ccco1 |  | inconclusive: 18.3% [phenotype inactive]
59 | O=C(C1CCCO1)N1N=C(c2ccc(Br)cc2)CC1c1ccco1 (centres undefined) | inconclusive: 11.2 µM [quencher, side channel, partial curve] | 
